# Measurements published in paper PMC4336329 (PLoS ONE, 2015).
# Out of some 310,000 compounds screened, about 14,000 (4.5%) showed an effect of 50% or more. Effects have a minus sign here. This is one part of the list.
# Biological target: human ether-à-go-go-related gene (hERG) potassium channel (human, UniProt Q12809)
# Assay: primary screen, population patch clamp on CHO cells stably expressing hERG
# 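Further: peak tail current of the secondary pulse compared with the same well before compound.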
# Chain of human ether-à-go-go-related gene (hERG) potassium channel (Q12809 whole entry, looked up): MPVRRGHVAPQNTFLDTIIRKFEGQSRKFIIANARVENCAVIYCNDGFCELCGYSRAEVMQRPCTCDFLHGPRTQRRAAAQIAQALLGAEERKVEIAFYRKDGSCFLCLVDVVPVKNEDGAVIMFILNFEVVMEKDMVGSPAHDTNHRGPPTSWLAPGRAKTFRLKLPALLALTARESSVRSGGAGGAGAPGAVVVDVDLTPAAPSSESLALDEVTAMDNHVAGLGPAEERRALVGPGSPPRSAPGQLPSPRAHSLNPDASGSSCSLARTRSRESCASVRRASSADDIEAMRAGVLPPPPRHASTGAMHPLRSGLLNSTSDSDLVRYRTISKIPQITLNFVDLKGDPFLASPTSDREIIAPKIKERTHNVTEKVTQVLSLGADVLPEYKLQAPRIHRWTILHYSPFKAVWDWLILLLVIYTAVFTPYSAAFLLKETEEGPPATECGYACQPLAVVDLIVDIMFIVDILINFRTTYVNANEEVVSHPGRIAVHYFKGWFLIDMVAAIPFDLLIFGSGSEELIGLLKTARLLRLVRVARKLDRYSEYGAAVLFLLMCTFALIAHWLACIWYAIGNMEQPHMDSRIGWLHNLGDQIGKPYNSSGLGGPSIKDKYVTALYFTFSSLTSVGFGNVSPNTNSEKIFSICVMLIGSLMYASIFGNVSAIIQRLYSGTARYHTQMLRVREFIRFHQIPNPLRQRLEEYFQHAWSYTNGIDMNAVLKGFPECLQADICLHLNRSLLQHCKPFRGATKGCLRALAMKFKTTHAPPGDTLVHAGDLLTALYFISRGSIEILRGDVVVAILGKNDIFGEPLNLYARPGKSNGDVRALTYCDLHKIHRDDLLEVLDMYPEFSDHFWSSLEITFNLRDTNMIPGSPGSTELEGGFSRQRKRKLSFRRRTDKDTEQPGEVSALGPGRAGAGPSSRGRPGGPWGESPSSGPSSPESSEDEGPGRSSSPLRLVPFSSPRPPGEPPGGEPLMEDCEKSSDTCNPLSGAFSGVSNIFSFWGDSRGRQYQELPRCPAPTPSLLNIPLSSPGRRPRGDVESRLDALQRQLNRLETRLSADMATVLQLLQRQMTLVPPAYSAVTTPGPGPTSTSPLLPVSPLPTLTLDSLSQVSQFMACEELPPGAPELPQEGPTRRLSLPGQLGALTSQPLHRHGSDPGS
row,Structure (SMILES),"hERG current change (%, negative = inhibition) at 10uM [%]"
1,COc1ccc(-n2cc(C(=O)O)c3ccccc3c2=O)cc1,-11.3
2,CCOc1cc(Br)c(CC(=O)O)cc1OCC,3.03
3,CC(=O)CC(=O)Nc1ccc2ccccc2c1,13
4,Cn1nc(-c2ccc(NCCO)c([N+](=O)[O-])c2)c2ccccc2c1=O,-2.29
5,C(=N\Nc1nc(Nc2ccccc2)nc(Nc2ccccc2)n1)/c1cccnc1,-4.87
6,O=C(COC(=O)c1ccccc1[N+](=O)[O-])NC(=O)c1ccccc1,5.64
7,CC(=O)O[C@@H]1C[C@H]2C(C)=C[C@H]3OC(=O)[C@@H](C)[C@H]3C[C@H]2[C@]1(C)O,4.33
8,CCOC(=O)CSc1nc(N)nc(C)c1Cl,13.4
9,O=C(CCNC(=O)C1CCN(S(=O)(=O)c2ccccc2)CC1)Nc1ccccc1,4.75
10,COc1cccc(CNC(=O)C(c2ccc(Cl)cc2)C(C)C)c1 (centres unmarked),11.5
11,O=C(COC(=O)c1ccccc1Br)Nc1ccccc1F,-21
12,CC1CCCCC1NC(=O)CN1C(=O)NC(Cc2ccccc2)(Cc2ccccc2)C1=O (centres unmarked),-14.6
13,Cc1cc(C)c(S(=O)(=O)N2CCCC2)c(C)c1,9.56
14,CSc1ccc(C(c2c(C(=O)O)[nH]c3ccccc23)c2c(C(=O)O)[nH]c3ccccc23)cc1,12.1
15,COc1nc2c(s1)C(=O)NCCC2,-1.58
16,Cc1ccccc1C(=O)c1cccn1CC(=O)NCCCN1CCc2ccccc2C1,-78.6
17,Cc1c(C(=O)N2CCOCC2)c(S(=O)(=O)Nc2ccc(Br)cc2F)c(C)n1C,14.1
18,Cc1cccc(-n2c(N)cc(=O)[nH]c2=S)c1C,-0.207
19,Cc1ccc(NC(=O)Nc2ncnc3nc[nH]c23)cc1,6.43
20,COc1ccc(CCNC(=O)C(=O)NCC2CCNCC2)cc1OC,14.3
21,CCC1(CC)NC(=O)N(CC(=O)OCC(=O)Nc2sccc2C#N)C1=O,16.7
22,O=C(COc1ccc(S(=O)(=O)Nc2ccccc2)cc1)NCc1ccncc1,7

row,Structure (SMILES),"hERG current change (%, negative = inhibition) at 10uM [%]"
1,Cc1[nH]n(C(N)=S)c(=O)c1N=Nc1ccc(Cl)cc1Cl,-19.5
2,COC(=O)C1=C(c2ccc(-c3ccccc3)c(F)c2)C[C@@H]2CC[C@H]1N2C(=O)NCc1cc(C)oc1C(F)(F)F,-1.04
3,O=[N+]([O-])c1cccc(/C=N/Nc2nc(NCc3ccccc3)nc(N3CCOCC3)n2)c1,12
4,C=CCNc1nc(-c2cccs2)c(CC(=O)O)s1,-2.08
5,Cc1[nH]c(=O)[nH]c(=O)c1S(=O)(=O)N1CCN(c2cccc(Cl)c2)CC1,2.58
6,Cc1ccc(N2C(=O)C3C4C=CC(CNC(=S)Nc5ccc(Cl)cc5)(O4)C3C2=O)cc1 (centres unmarked),4.42
7,O=C(OCCN1C(=O)c2ccccc2C1=O)c1cc2ccccc2o1,1.62
8,CC(=O)c1cccc(NC(=O)C(C)N(C)CC(=O)Nc2ccc(Cl)cc2)c1 (centres unmarked),-5.14
9,COc1cc(C2C(N3C(=O)c4ccccc4C3=O)C(=O)N2c2ccc(C)c(C)c2)cc(OC)c1OC (centres unmarked),22.7
10,Cc1csc(=O)n1CC(=O)OCC(=O)c1ccc(Br)cc1,-14
11,O=P1(O)C=C(c2ccccc2)OC(c2ccccc2)=C1,23.9
12,Cc1c(C(=O)N(C)C)sc(NC(=O)c2cc([N+](=O)[O-])cc([N+](=O)[O-])c2)c1C#N,5.58
13,Cn1cncc1C#Cc1c(C=O)[nH]c2ccccc12,6.07
14,COc1ccc(C(=O)Nc2ccc(Br)cn2)cc1S(=O)(=O)N1CCOCC1,-57.9
15,CCCn1c(NC(=O)c2ccc(F)cc2)nc2ccccc21,14.5
16,CN=C(C)c1c(O)c2ccccc2oc1=O,-16.9
17,Cc1nn(CCS(=O)(=O)c2ccc(Cl)cc2)c(C)c1Br,1.2
18,CCn1c(C)c(C(=O)O)c2cc(OC)ccc21,6.41
19,O=C(Nc1cccnc1N1CCOCC1)c1cccs1,-9.08
20,COc1cc(NC(=O)c2cccc3c2C(=O)N(C2CCCCC2)C3)cc(OC)c1OC,2.33
21,COc1ccc(NC2=NC(C)(CO)CS2)cc1 (centres unmarked),17.5
22,O=C(Oc1ccc2ccc(=O)oc2c1)c1ccccc1,14.2
